Test results from paper PMC5515408.
The other results are listed elsewhere or left out. At the low end of the ranking the order means little.

These sequences were tested on MYC (p64) + MAX (p21), in MYC:MAX (assay: protein-binding microarray (anti-MAX antibody)). Conditions: PBM: 15 mM Tris-HCl pH 7.5, 100 mM KCl, 0.075% NP40, 7.5 mM beta-mercaptoethanol, 375 ng/ul BSA, 8 ng/ul poly(dA-dT):(dA-dT), 550 ng complex, 60 min, room …; high values mean tight binding; double strand, one strand shown; sequences stand for … in CCGGC…TTAATAGCTAAGATTACTATATCGACG.
For TGAGCTCACGTA, the binding signal (log2 normalized fluorescence) was 0.183.
TGATCTACGGTA showed a binding signal (log2 normalized fluorescence) of -0.0274.
Sequence TGAAACACGGTA has a binding signal (log2 normalized fluorescence) of 0.314.
With TGAACATGAGTA the binding signal (log2 normalized fluorescence) was 0.232.
Work on TGACCTTCAGTA yielded a binding signal (log2 normalized fluorescence) of 0.196.
Work on TGACGCGTGCTA yielded a binding signal (log2 normalized fluorescence) of 0.61.
Sequence TGACCGAGCGTA has a binding signal (log2 normalized fluorescence) of 0.252.
Work on TGAAGTAGGGTA yielded a binding signal (log2 normalized fluorescence) of -0.117.
Work on TGAATGGCGGTA yielded a binding signal (log2 normalized fluorescence) of 0.208.
TGAACTCAGGTA showed a binding signal (log2 normalized fluorescence) of 0.097.
Work on TGACTCCAGGTA yielded a binding signal (log2 normalized fluorescence) of 0.1.
For TGAGGGTCTGTA, the binding signal (log2 normalized fluorescence) was 0.0879.
TGAGTACACGTA was tested, and the binding signal (log2 normalized fluorescence) was 0.0802.
TGACAGCAAGTA gave a binding signal (log2 normalized fluorescence) of 0.286.
In the case of TGAATGAGGGTA, the binding signal (log2 normalized fluorescence) is reported as 0.205.
In the case of TGAAGCGGGGTT, the binding signal (log2 normalized fluorescence) is reported as 0.29.
TGATCTGCTGTA gave a binding signal (log2 normalized fluorescence) of -0.133.
TGAGCATTTGTA was tested, and the binding signal (log2 normalized fluorescence) was 0.251.
Sequence TGAAGGCTCGTA has a binding signal (log2 normalized fluorescence) of -0.0491.
TGAAGTGATGTA showed a binding signal (log2 normalized fluorescence) of 0.206.
TGACAGTCGGTA gave a binding signal (log2 normalized fluorescence) of 0.0326.
For TGAGGGGAGGTA, the binding signal (log2 normalized fluorescence) was 0.438.
TAACAAGTGATA gave a binding signal (log2 normalized fluorescence) of 0.257.
In the case of TGAATTTGAGTA, the binding signal (log2 normalized fluorescence) is reported as -0.118.
TGAGGACGCGTA was tested, and the binding signal (log2 normalized fluorescence) was 0.165.
Work on TGATAGCAGGTA yielded a binding signal (log2 normalized fluorescence) of 0.127.
TGACACATGGTC gave a binding signal (log2 normalized fluorescence) of 0.657.
In the case of TGAAGTACGGTA, the binding signal (log2 normalized fluorescence) is reported as 0.0239.
Work on TGATCGCCAGTA yielded a binding signal (log2 normalized fluorescence) of -0.0281.
For TGACACGTGGGC, the binding signal (log2 normalized fluorescence) was 0.74.
TCCAACGTGGTA was tested, and the binding signal (log2 normalized fluorescence) was 0.579.
With TGAGTCCAGGTA the binding signal (log2 normalized fluorescence) was -0.252.
In the case of TGAAGCAGTGTA, the binding signal (log2 normalized fluorescence) is reported as 0.026.
TGACATCCTGTA gave a binding signal (log2 normalized fluorescence) of 0.102.
In the case of TGACACACGGTA, the binding signal (log2 normalized fluorescence) is reported as 0.561.
TGAGCTGACGTA was tested, and the binding signal (log2 normalized fluorescence) was -0.0553.
TGACGCCTTGTA was tested, and the binding signal (log2 normalized fluorescence) was 0.156.
For TGACTCGGAGTA, the binding signal (log2 normalized fluorescence) was -0.15.
Sequence TGATCCTACGTA has a binding signal (log2 normalized fluorescence) of 0.0765.
Work on TGATCTAACGTA yielded a binding signal (log2 normalized fluorescence) of 0.0389.
TGAGCCTTAGTA was tested, and the binding signal (log2 normalized fluorescence) was -0.121.
For TGATTGCAGGTA, the binding signal (log2 normalized fluorescence) was 0.00225.
TGAAAACGGGTA gave a binding signal (log2 normalized fluorescence) of 0.128.
In the case of TGACATCGTGTA, the binding signal (log2 normalized fluorescence) is reported as 0.401.
TGAGAATCGGTA showed a binding signal (log2 normalized fluorescence) of -0.108.
In the case of TGACACGCTCTA, the binding signal (log2 normalized fluorescence) is reported as 0.665.
For TGATGATGTGTA, the binding signal (log2 normalized fluorescence) was 0.057.
With TGATAAGCCGTA the binding signal (log2 normalized fluorescence) was -0.185.
TGAGTGGCGGTA gave a binding signal (log2 normalized fluorescence) of 0.0916.
Work on TGATGCGCCGTA yielded a binding signal (log2 normalized fluorescence) of 0.153.
With TGAGTCCTCGTA the binding signal (log2 normalized fluorescence) was 0.208.
For TGACCCGGGGTC, the binding signal (log2 normalized fluorescence) was 0.0341.
Sequence TGAGATCCAGTA has a binding signal (log2 normalized fluorescence) of -0.0919.
For TGATTATTAGTA, the binding signal (log2 normalized fluorescence) was -0.0626.
For TGATCCAATGTA, the binding signal (log2 normalized fluorescence) was -0.0218.
In the case of TGATCGAGCGTA, the binding signal (log2 normalized fluorescence) is reported as -0.116.
Work on TGAATAAGTGTA yielded a binding signal (log2 normalized fluorescence) of 0.0824.
Sequence TGATGAACTGTA has a binding signal (log2 normalized fluorescence) of 0.136.
Work on TGAGTGACAGTA yielded a binding signal (log2 normalized fluorescence) of 0.00932.
TGATGTGCAGTA gave a binding signal (log2 normalized fluorescence) of 0.236.
TGACCAGACGTA showed a binding signal (log2 normalized fluorescence) of 0.135.
TGATTTGCTGTA gave a binding signal (log2 normalized fluorescence) of -0.0458.
TGAGCAGTCGTA was tested, and the binding signal (log2 normalized fluorescence) was 0.0523.
TGGCACTTGGTA was tested, and the binding signal (log2 normalized fluorescence) was 0.157.
TGATTTGTGGTA gave a binding signal (log2 normalized fluorescence) of -0.0148.
TGCCATGTGGGA gave a binding signal (log2 normalized fluorescence) of 0.899.
Sequence TGATTCAGCGTA has a binding signal (log2 normalized fluorescence) of -0.127.
TGACAGGATGTA gave a binding signal (log2 normalized fluorescence) of 0.0981.
CGCCACGTGGTC showed a binding signal (log2 normalized fluorescence) of 0.884.
Work on TGAATTGGTGTA yielded a binding signal (log2 normalized fluorescence) of 0.091.
TGACACGTGGAA was tested, and the binding signal (log2 normalized fluorescence) was 0.698.
Sequence TGATGGCCCGTA has a binding signal (log2 normalized fluorescence) of -0.0184.
TGACCCATGGTA was tested, and the binding signal (log2 normalized fluorescence) was 0.407.
In the case of TGATAAAAAGTA, the binding signal (log2 normalized fluorescence) is reported as -0.00091.
TGAGTTGTTGTA was tested, and the binding signal (log2 normalized fluorescence) was -0.128.
For TGATTCACGGTA, the binding signal (log2 normalized fluorescence) was 0.00748.
TGAAAATGCGTA gave a binding signal (log2 normalized fluorescence) of 0.248.
TGAAACGTCGTA was tested, and the binding signal (log2 normalized fluorescence) was 0.0788.
Work on TGAGGAACCGTA yielded a binding signal (log2 normalized fluorescence) of -0.0339.
With CGACGCGAGGTA the binding signal (log2 normalized fluorescence) was 0.462.
Sequence TCATACGTAGTA has a binding signal (log2 normalized fluorescence) of 0.166.
TCTCAGGTTTTT gave a binding signal (log2 normalized fluorescence) of -0.0664.
With TGATTGACGGTA the binding signal (log2 normalized fluorescence) was -0.0162.
In the case of TGAGGGCTGGTA, the binding signal (log2 normalized fluorescence) is reported as 0.0137.
With TGACACAGTGTA the binding signal (log2 normalized fluorescence) was 0.232.
With TGATGTGGCGTA the binding signal (log2 normalized fluorescence) was 0.151.
Work on TGACCATCCGTA yielded a binding signal (log2 normalized fluorescence) of 0.173.
With TGATGGTTCGTA the binding signal (log2 normalized fluorescence) was 0.159.
With TGAAGACGGGTA the binding signal (log2 normalized fluorescence) was 0.0235.
TACTACGTGGTA was tested, and the binding signal (log2 normalized fluorescence) was 0.34.
TGATCGCAAGTA gave a binding signal (log2 normalized fluorescence) of 0.136.
In the case of TGAGCTGATGTA, the binding signal (log2 normalized fluorescence) is reported as 0.0743.
Work on TGAATATACGTA yielded a binding signal (log2 normalized fluorescence) of 0.0278.
Sequence CGCAACGTGGTA has a binding signal (log2 normalized fluorescence) of 0.645.
Work on TGAGGACATGTA yielded a binding signal (log2 normalized fluorescence) of 0.259.
Sequence TGAGTTTTCGTA has a binding signal (log2 normalized fluorescence) of 0.0154.
TGATAGCCAGTA was tested, and the binding signal (log2 normalized fluorescence) was -0.254.
For TGACATCCAGTA, the binding signal (log2 normalized fluorescence) was 0.16.
TGAAGCCTCGTA gave a binding signal (log2 normalized fluorescence) of 0.23.
Work on TGACAAACAGTA yielded a binding signal (log2 normalized fluorescence) of 0.151.
With TGAACATCTGTA the binding signal (log2 normalized fluorescence) was 0.392.
TGAGGTAAGGTA gave a binding signal (log2 normalized fluorescence) of -0.105.
TGATCAGTTGTA gave a binding signal (log2 normalized fluorescence) of -0.0212.
For TAATACGGGGTA, the binding signal (log2 normalized fluorescence) was 0.309.
TGAAACCGGGTA showed a binding signal (log2 normalized fluorescence) of 0.097.
In the case of TGAATGTGAGTA, the binding signal (log2 normalized fluorescence) is reported as 0.216.
TGAAGACACGTA showed a binding signal (log2 normalized fluorescence) of 0.229.
TGACGCGCAGTA gave a binding signal (log2 normalized fluorescence) of 0.215.
With TGACAGGAGGCA the binding signal (log2 normalized fluorescence) was 0.194.
For TCAGTCGTGGTA, the binding signal (log2 normalized fluorescence) was 0.323.
With TCACAAGTGGTA the binding signal (log2 normalized fluorescence) was 0.366.
Work on TGCCACGTCGCA yielded a binding signal (log2 normalized fluorescence) of 0.356.
With TGAACCGGTGTA the binding signal (log2 normalized fluorescence) was 0.172.
With TGACATTACGTA the binding signal (log2 normalized fluorescence) was 0.132.
With TGAATACCGGTA the binding signal (log2 normalized fluorescence) was -0.0714.
For TGAACACTTGTA, the binding signal (log2 normalized fluorescence) was 0.267.
TGATGGTAGGTA showed a binding signal (log2 normalized fluorescence) of 0.284.
With TGATCATCTGTA the binding signal (log2 normalized fluorescence) was 0.173.
Sequence TGAGTACATGTA has a binding signal (log2 normalized fluorescence) of 0.33.
TGACGTTATGTA gave a binding signal (log2 normalized fluorescence) of 0.0295.
With TGAGCTAGCGTA the binding signal (log2 normalized fluorescence) was -0.239.
Work on TGAACGGTGGTA yielded a binding signal (log2 normalized fluorescence) of 0.161.
TGAACCCGCGTA gave a binding signal (log2 normalized fluorescence) of 0.279.
TGATCACACGTA was tested, and the binding signal (log2 normalized fluorescence) was 0.407.
With TGAGGATTTGTA the binding signal (log2 normalized fluorescence) was -0.272.
For TGACAGTCTGTA, the binding signal (log2 normalized fluorescence) was 0.0688.
In the case of TGATAGGTCGTA, the binding signal (log2 normalized fluorescence) is reported as -0.161.
Work on TGAGTTGAAGTA yielded a binding signal (log2 normalized fluorescence) of -0.273.
Work on TGATATGGTGTA yielded a binding signal (log2 normalized fluorescence) of 0.218.
CGACACGTTGTA gave a binding signal (log2 normalized fluorescence) of 0.656.
TGAATACCCGTA showed a binding signal (log2 normalized fluorescence) of 0.0211.
With TGACGTTACGTA the binding signal (log2 normalized fluorescence) was 0.123.
Sequence TGACTACAGGTA has a binding signal (log2 normalized fluorescence) of 0.0271.
With TGATCTTGGGTA the binding signal (log2 normalized fluorescence) was -0.213.
Sequence TGACACGTCTAA has a binding signal (log2 normalized fluorescence) of 0.197.
With TGATGGCTCGTA the binding signal (log2 normalized fluorescence) was 0.103.
With TGATATGTCGTA the binding signal (log2 normalized fluorescence) was 0.0678.
TGATTCAGGGTA was tested, and the binding signal (log2 normalized fluorescence) was -0.163.
